Reference: PubChem BioAssay AID588855 (National Center for Advancing Translational Sciences (NCATS), 2011)
Several values for one entry are separate records, joined by “and”; a condition that tells them apart may be missing. Identical values can stand only once. In all, about 410,000 compounds went through this assay and about 5,000 (1.2%) were called active. The shares of active, inactive and inconclusive entries below differ from those in the screen. The call rests on the fitted dose curve; in most records, active means well fitted inhibition curve with a large enough effect; inconclusive means small, poorly fitted or top-dose-only effect; inactive means no such curve, though single readings can be large or run the other way. Potencies of inconclusive entries are doubtful fits and often do not repeat.

experiment: qHTS for Inhibitors of TGF-b; conditions: HepG2 CAGA-GFP TGF-b/SMAD3 reporter, GFP fluorescence, 18 h, TGF-beta stimulated, 500 pg/mL final; series mostly up to 46.1 µM; further: nearly all actives have a fitted effect of over 65% in size
Method in brief: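 HEPG2 CAGA-GFP reporter cells (1000/well, DMEM with 1% FBS) received compounds, then recombinant TGF-beta at 500 pg/mL final for 18 hours at 37 degrees C. Per-cell GFP summed per well was normalised to unstimulated and stimulated DMSO controls before curve fitting.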
Potency means the concentration at half of the fitted maximal effect; tags describe the fitted curve by direction and shape.

Row | Compound | Potency
1 | Nc1nnc(-c2ccncc2)s1 | inactive
2 | Cc1ccc(C(=O)N2c3ccccc3Sc3ccccc32)cc1 | inactive
3 | COc1ccc(/C(C)=N/NC(=O)c2ccc(CSc3nncn3C)cc2)cc1 | inconclusive: 3.98 µM [inhibitor, full curve, poor fit]
4 | CC1(C)C[C@@H]2C[C@@](C)(CN2C(=O)c2cc(COc3cccc(C(F)(F)F)c3)on2)C1 | inconclusive: 20 µM [inhibitor, single point]
5 | COc1ccc(/C=N/NC(=S)Nc2cc(S(=O)(=O)N3CCOCC3)ccc2N2CCOCC2)cc1O | inconclusive: 25.1 µM [inhibitor, single point]
6 | CCc1cc2c(=O)c(-c3ccc4c(c3)OCCO4)coc2c(CN2CCCCC2C)c1O (configuration not stated) | inconclusive: 10 µM [inhibitor, partial curve]
7 | COc1ccccc1C1C(C#N)=C(N)Oc2c1c(-c1ccccc1)nn2-c1ccccc1 (configuration not stated) | inconclusive: 35.5 µM [inhibitor, single point]
8 | CCN(CC)C(=O)C1CCCc2c1[nH]c1ccc(Cl)cc21 (configuration not stated) | inconclusive: 6.31 µM [inhibitor, single point]
9 | C/C(=N/NC(=O)c1nnn(-c2nonc2N)c1COc1ccccc1)c1ccc(O)cc1 | inconclusive: 35.5 µM [inhibitor, single point]
10 | O=C(C1CCC(=O)N(C2CC2)C1)N(CCO)Cc1ccccc1 (configuration not stated) | inconclusive: 6.31 µM [inhibitor, single point]
11 | COc1ccc(OCC(=O)N2c3ccccc3CC2C)c([N+](=O)[O-])c1 (configuration not stated) | inactive
12 | c1ccc(CSC2=NCCCN2)cc1 | inactive
13 | CCOC(=O)CSc1ncnc2c1c(-c1ccccc1)cn2-c1ccc(OC)cc1 | inconclusive: 35.5 µM [inhibitor, single point]
14 | COc1ccccc1NC(=O)c1c(C)oc2c1CCCC2 | inactive
15 | CCOC(=O)c1[nH]cnc1C(=O)Nc1ccccc1OC | inconclusive: 6.31 µM [inhibitor, single point]
16 | C=C1CCC[C@]2(C)C[C@H]3OC(=O)C(CN(Cc4ccc(OC)c(OC)c4)CC(C)O)[C@H]3CC12 (some centres not stated) | inconclusive: 25.1 µM [inhibitor, single point]
17 | CC(=O)NC(CSC(CC(=O)c1ccco1)c1ccc(C)cc1)C(=O)O (configuration not stated) | inconclusive: 31.6 µM [inhibitor, single point]
18 | O=C(NNC(=S)Nc1ccc(Br)cc1)c1ccc(N2CCOCC2)c([N+](=O)[O-])c1 | inconclusive: 28.2 µM [inhibitor, single point]
19 | CC(C)Nc1nc(Nc2ccc(Cl)cc2F)c2sccc2n1 | inconclusive: 31.6 µM [inhibitor, single point]
20 | Cc1cc(NC(=O)CN(c2cccc(C)c2C)S(=O)(=O)c2ccccc2)ccc1Br | inconclusive: 17.8 µM [inhibitor, single point]
21 | COC(=O)c1c(-c2c(Cl)cccc2Cl)noc1C(=O)NNC(=O)N(C)C | inactive

Row | Compound | Potency
22 | CCOC1(OCC)C(c2ccc(Cl)cc2)C(C#N)(C#N)C1(OCC)OCC (configuration not stated) | inconclusive: 15.8 µM [inhibitor, single point]
23 | Cc1cc(NCCCCO)n2c(nc3ccccc32)c1C#N | inactive
24 | CCCOc1ccc(CNC(=O)C2CCN(c3nn4c(=O)cc(C)nc4s3)CC2)cc1 | inconclusive: 35.5 µM [inhibitor, partial curve, poor fit] and inconclusive: 2 µM [inhibitor, full curve]
25 | COc1ccc(S(=O)(=O)N2c3cc(C)ccc3OCC2C(C)(C)C)cc1 (configuration not stated) | inconclusive: 35.5 µM [inhibitor, single point]
26 | COc1ccc(CCC(=O)NCc2ccc3c(c2)CCN3C(=O)c2cccc(C)c2)cc1 | inconclusive: 15.8 µM [inhibitor, partial curve, poor fit]
27 | CCOc1ccc(/C=N/NC(=O)c2ccc3nc[nH]c3c2)cc1OC | inactive
28 | COc1cccc(NC(=O)Nc2nc(SC)ns2)c1 | inconclusive: 35.5 µM [inhibitor, single point]
29 | COC(=O)c1ccc(=O)n(-c2ccc(OC)cc2)c1 | inconclusive: 0.199 µM [inhibitor, full curve, poor fit]
30 | O=C(NCCc1ccccc1)c1cnc2sc(N3CCOCC3)nn2c1=O | inconclusive: 5.62 µM [inhibitor, single point]
31 | O=C(CC1(O)C(=O)Nc2cc(Cl)cc(Cl)c21)c1ccncc1 (configuration not stated) | inconclusive: 20 µM [inhibitor, partial curve, poor fit]
32 | CCCSCCCNC(=O)CN1C(=O)COc2ccc(S(=O)(=O)N3CCCCCC3)cc21 | inconclusive: 12.6 µM [inhibitor, partial curve, poor fit]
33 | COc1ccc(NS(=O)(=O)c2ccc(C)c(NC(=O)CNC(=O)c3ccco3)c2)cc1 | inactive
34 | COc1ccccc1C(CNC(=O)CSc1ccc2ccccc2c1)N(C)C (configuration not stated) | inactive
35 | CCOc1ccc(C(=O)Nc2ccc3nc(SCC(=O)N4CCOCC4)sc3c2)cc1 | inactive
36 | O=[N+]([O-])c1ccc(C[n+]2cccc3ccc4cccnc4c32)cc1 | inconclusive: 8.91 µM [inhibitor, partial curve, poor fit]
37 | COc1ccc(Cn2cc(CN3CCS(=O)(=O)N(Cc4ccc(-c5cccc(Cl)c5)cc4)C(C)C3=O)nn2)cc1 (configuration not stated) | inconclusive: 11.2 µM [inhibitor, partial curve, poor fit]
38 | Cc1ccc2[nH]c(C(F)(F)F)cc(=O)c2c1 | inactive
39 | COc1cccc(COCCN2CCN(S(=O)(=O)c3ccc(C)cc3)CCC2=O)c1 | inconclusive: 2.82 µM [inhibitor, partial curve, poor fit]
40 | Cc1cc(C)nc(NC2=NCC(=O)N2c2cccc(Cl)c2)n1 | inconclusive: 1.41 µM [inhibitor, partial curve, poor fit]
41 | CCCCOc1ccccc1NC(=O)Cn1c(-c2nonc2N)nc2ccccc21 | inconclusive: 20 µM [inhibitor, single point]
42 | CC(=O)Nc1nc2ccc(NC(=O)c3ccco3)cc2s1 | inactive
